The results in this text go back to ChEMBL document CHEMBL4888484, “Replenishing the malaria drug discovery pipeline: Screening and hit evaluation of the MMV Hit Generation Library 1 (HGL1) against asexual blood stage Plasmodium falciparum ,using a nano luciferase reporter read-out” (2022).

Broadly, the % Inhibition is the relative decrease from the control value, in per cent.

The whole screen tested about 150,000 compounds, of which about 540 (0.36%) showed an effect of 50% or more. This is one part of the list.

The test system of the assay is Plasmodium falciparum. As to the kind of experiment: Primary screen in NF54 nanoGlo assay, in single point, at 2uM, 72h; a lower Z score goes with more inhibition. The assay is classed as functional, Erythrocyte. The conditions noted are these: timepoint 72 hour.
In the case of `O=C(Cn1cnc2ccccc2c1=O)NCc1cncc(-c2ccco2)c1`, the “% Inhibition” value was -6% and the Z score is 1.14.
`CCC(O)CN(c1ccccc1)C1CCN(CC(F)(F)F)C1=O` (stereo unspecified): the “% Inhibition” value is -7% and the Z score amounted to 0.7.
The matching figures for `CCCC(=O)Nc1ccc2c(c1)CN(C(=O)c1ccc(N(C)C)cc1)[C@H](C(=O)N(C)C)C2`: -7% and 1.14.
Turning to `Cc1nnc2c3ccc(Cl)cc3nc(N3CCN(C(=O)C4CCCC4)[C@@H](C)C3)n12`, the “% Inhibition” value was -16% and the Z score was 1.87.
`COc1ccc(C(=O)N2CCN(CC3CC3)[C@@H]3CS(=O)(=O)C[C@@H]32)cc1C`: the “% Inhibition” value is on record as -8% and the Z score turned out to be 1.
The like results for `O=C(c1cnn2cccnc12)N1CCN(CC2CC2)[C@@H]2CS(=O)(=O)C[C@@H]21` were, in that order, -8% and 1.2.
On to `FCCCn1nnnc1-c1ccncc1`, for which the “% Inhibition” value is -3% and the Z score is 0.34.
The like results for `Cc1ccc(-n2ncc3c2CC(C)(C)C[C@@H]3NC(=O)CN2CCCC2=O)cc1` were, in that order, -21% and 2.22.
The like results for `c1cnc(N2CCN(Cc3csc(-c4cccs4)n3)CC2)nc1` were, in that order, -14% and 1.63.
The like results for `CC(C)c1ncc(C(=O)N2CCOC[C@@H](C3CCC3)C2)s1` were, in that order, -4% and 0.69.
Take `CC(C)Cc1nc(CNC(C)C2CCCO2)no1` (stereo unspecified): the “% Inhibition” value is reported as -10% and the Z score was found to be 0.9.
The like results for `CCn1cc(OC(=O)c2coc(-c3ccccc3)n2)cn1` were, in that order, -7% and 0.91.
The matching figures for `Cc1ccc(NC(=O)CN2CC(=O)NC2=O)cc1C`: -2% and 0.26.
The matching figures for `Cc1ccsc1C(=O)N1CC[C@@]2(CCCN(CC(C)(C)C)C2=O)C1`: 1% and -0.07.
For the compound `O=C(c1cc(C2CC2)on1)N1CCn2nc3c(c2C1)CCC3`, the “% Inhibition” value is 16% and the Z score is -2.01.
Consider `Brc1cc(Br)c2nc(-c3ccc(C4CCCCC4)cc3)ccc2c1`, for which the “% Inhibition” value is 33% and the Z score was -1.13.
The matching figures for `Cc1cc(C)c2[nH]c(C(=O)N3CCC(O)(CN4CCCC4)CC3)c(C)c2c1`: -7% and 0.92.
The matching figures for `O=C1CCN(Cc2c[nH]nc2-c2ccc(F)cc2)CCN1CCN1CCCCC1`: 3% and -0.54.
For `Cc1ccc(C(=O)Nc2cccc(N3CCCCCC3)c2)c(=O)[nH]1`, the “% Inhibition” value is recorded as -12% and the Z score worked out at 1.57.
The like results for `O=C(NCc1ccncc1)c1coc(COc2cccc(C(F)(F)F)c2)n1` were, in that order, -10% and 1.48.
The like results for `CC(C)[C@H](NC(=O)c1cn(C)cn1)c1ncnn1C` were, in that order, -17% and 3.31.
The like results for `CCCC(=O)N(c1ccc2c(c1)c(C(=O)OCC)c(C)n2S(C)(=O)=O)S(C)(=O)=O` were, in that order, -15% and 1.97.
On to `Cn1ccnc1NC(=O)c1ccccc1-n1cnnc1`, for which the “% Inhibition” value is on record as 2% and the Z score is on record as -0.33.
On to `CN1CCC(N2C[C@@H](F)[C@@H](OCc3nc4ccccc4o3)C2)CC1`, for which the “% Inhibition” value was 26% and the Z score is -2.92.
For the compound `Cn1cncc1CNCC1(N2CCOCC2)CCCCC1`, the “% Inhibition” value was -7% and the Z score was determined as 1.07.
The matching figures for `O=C(NCCc1cccs1)c1nn[nH]c1Nc1ccccc1F`: 37% and -5.3.
Turning to `O=C(Nc1nc(-c2csc(NC(=O)c3cccc(C(F)(F)F)c3)n2)cs1)c1cccc(C(F)(F)F)c1`, the “% Inhibition” value worked out at 6% and the Z score is listed as -0.98.
Take `O=C(NC1CCOC2(CCOC2)C1)N[C@H]1CCCc2ccc(F)cc21` (stereo partly specified): the “% Inhibition” value is given as -6% and the Z score is recorded as 0.64.
The like results for `Cc1cc(C)cc(NC(=O)[C@H]2CCCN(S(=O)(=O)Cc3ccccc3Cl)C2)c1` were, in that order, -5% and 0.71.
The matching figures for `O=C(c1ccc2ccccc2c1)[C@H]1CCCN(C(=O)CCN2CCCCO2)C1`: -15% and 2.24.
The matching figures for `O=C(c1onc2ccccc12)N1CCC(n2cc(C3CCCC3)nn2)CC1`: 2% and -0.19.
Regarding `CCCNC(=O)CN1CCn2nc(-c3ccccc3)cc2C1=O`, the “% Inhibition” value was determined as 6% and the Z score was -0.74.
The matching figures for `O=c1n(Cc2cccc(Br)c2)nc2c(S(=O)(=O)N3CCCCC3)cccn12`: 3% and -0.46.
The matching figures for `Cc1nc(C(C)C)oc1Cn1cnc2c(c1=O)CCC2`: -2% and 0.41.
With `O=C(NC1CCCCC1)[C@@]12CCCC[C@H]1N(C1CC1)S(=O)(=O)CC2`, the “% Inhibition” value is given as -6% and the Z score is listed as 0.74.
The matching figures for `CC(C)(Cc1cccc(Cl)c1)C(=O)NCC1(O)CCOCC1`: 6% and -1.
Consider `CC[C@@H](C)[C@H](NC(=O)N1CC(=O)Nc2ccccc21)C(=O)NCc1cccnc1`, for which the “% Inhibition” value is -5% and the Z score stood at 0.6.
The like results for `CC(=O)Nc1ccc(CN2CCc3c(c(CO)nn3C)C2)cc1` were, in that order, -4% and 0.78.
Regarding `c1ccc(-c2nnc(-c3cccnc3NCc3cccs3)o2)cc1`, the “% Inhibition” value is given as -5% and the Z score turned out to be 0.8.
Consider `O=C(NC1CC1c1cccc(F)c1)c1cc[n+]([O-])cc1` (stereo unspecified), for which the “% Inhibition” value is recorded as -1% and the Z score came to 0.2.
The like results for `O=C(O)c1ccc2[nH]c(C3CC3)nc2c1` were, in that order, 7% and -0.77.
The like results for `C=CCOc1ccc(C(=O)NCCOC)cc1` were, in that order, -11% and 1.66.
The like results for `COc1ccc(C(=O)N[C@H](C(=O)NC(C)C)C2CCN(C(=O)c3cccc(OC)c3)CC2)cc1` were, in that order, -3% and 0.63.
Take `CCCn1c(=O)n(CCC(=O)N2CCC[C@H](c3nnc4ccccn34)C2)c2ccccc21`: the “% Inhibition” value was -8% and the Z score stood at 1.03.
The matching figures for `CC(=O)Nc1sc2c(c1-c1nc3ccccc3s1)CCN(C(C)=O)C2`: -6% and 0.97.
Take `CN(Cc1ccco1)C(=O)c1nc(N2CCOCC2)ncc1Cl`: the “% Inhibition” value is given as -6% and the Z score came out at 1.09.
The matching figures for `O=C(Nc1nc2c(s1)CCCC2)c1ccc2ccccc2c1`: -8% and 1.37.
For the compound `COCc1noc(CN2CC[C@@]3(CCCN(C4CCCC4)C3=O)C2)n1`, the “% Inhibition” value is -7% and the Z score is 1.03.
`Cc1ccccc1-n1nc([C@H]2CCOC2)nc1-c1ncn[nH]1`: the “% Inhibition” value was -7% and the Z score was determined as 1.14.
The like results for `CC(C)(c1ccccc1)c1nnc(-c2cnc3onc(C4CC4)c3c2)o1` were, in that order, -17% and 3.27.
Regarding `CCCN1C(=O)c2c(C(=O)NCc3cccc(C)c3)ncn2C[C@@]1(C)C(=O)NC1CCCC1`, the “% Inhibition” value is recorded as -14% and the Z score came to 2.71.
For the compound `CCn1cnc2c(N(C)Cc3cc(OC)ns3)ncnc21`, the “% Inhibition” value is listed as -8% and the Z score was 1.49.
For the compound `COc1ccccc1CCNC(=O)[C@H]1CCCN(S(=O)(=O)c2c(C)nc(O)nc2O)C1`, the “% Inhibition” value turned out to be 7% and the Z score is reported as -1.1.
